Here are results for 83 variants from the RNAGym collection of RNA variant scans (doi:10.1093/nar/gkz1192).

The chains are these.
B1: CPEB3 Ribozyme (parent)
chain: UAACAGGGGGCCACAGCAGAAGCGUUCACGUCGCAGCCCCUGUCAGAUUCUGGUGAAUCUGCGAAUUCUGCUGUAUAUCUC

Read counts are not given, so values of variants with three or more changes are uncertain.

Variants of B1 are the subject of the data set. The experiment in a line: self-cleavage, relative activity (ratio to wild type); higher = more cleavage; in vitro, sequencing. The gist of the method:
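After error-prone PCR and barcoding, CPEB3 ribozyme mutant libraries were transcribed with T7 RNA polymerase at 37°C for 5 hours, then given 15 min with DNase I before an EDTA stop, and they cleaved during both steps. Reverse transcription with template switching preceded Illumina sequencing. Relative activity divides a variant's cleaved/total read fraction by the unmutated ribozyme's. At least 5 reads were required per variant, and three batches were averaged.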
As for A5U U26C C39A G46U A75G, the self-cleavage is 0.06.

For A5U C23G U60C A65G, the self-cleavage amounted to 0.11.

For the variant A5U U26A C79A U80A, the self-cleavage came out at 1.22.

As for A5U A28G G36A, the self-cleavage turned out to be 0.3.

Regarding A5U A28G G70U U74C, the self-cleavage stood at 0.18.

In the case of A5U G10A G33A U49A, the self-cleavage was 0.04.

Consider A5U A28G U51C U80C, for which the self-cleavage came out at 0.89.

As to A5U G16U A18G U25C U51C A65G U69C, the self-cleavage was 0.05.

With A5U G30U U49C, the self-cleavage amounted to 0.1.

On to A5U A28G A56G U60A U76C, for which the self-cleavage was 0.19.

For the variant A5U A45G U48C, the self-cleavage stood at 0.26.

For the variant A5U U26C A45G G55A U72C, the self-cleavage was 0.47.

On to A5U A21G U26C G52U U54A, for which the self-cleavage is 0.28.

As to A5U A21G U74C, the self-cleavage was 0.98.

Regarding A5U C17G A18U C29U U72A, the self-cleavage amounted to 0.24.

Consider A5U U26A A35G, for which the self-cleavage is 1.27.

For A5U U31C A35G U72C, the self-cleavage is 1.17.

For A5U C38G U41C U51C U54C A65G U67C, the self-cleavage stood at 0.1.

A5U G8A C11U U41C U49A A77G: the self-cleavage came out at 0.2.

In the case of A5U C23U U51C A56G U58C, the self-cleavage came out at 0.32.

On to A5U A57U U69C, for which the self-cleavage was found to be 0.23.

A5U A45G U78A: the self-cleavage was determined as 1.09.

With A5U G6A U31A A64G A65U U66C U78C, the self-cleavage amounted to 0.07.

For the variant A5U G9A A18U C38U G42U U78C, the self-cleavage was found to be 0.05.

As for A5U C17U C59A U80C, the self-cleavage was found to be 0.2.

A5U G9A A13G A20G U54A: the self-cleavage was 0.21.

Take A5U U26C A45G U60G A65G: the self-cleavage came out at 0.12.

In the case of A5U U41C A56G U60C A64G A77G, the self-cleavage was 0.3.

A5U C62A U80A: the self-cleavage turned out to be 0.24.

Consider A5U G10U A35U A57G, for which the self-cleavage worked out at 0.07.

With A5U U25A A35U U54A, the self-cleavage was determined as 0.17.

For A5U U25C U49C, the self-cleavage was 0.36.

For the variant A5U C37U U60C A77G, the self-cleavage amounted to 0.21.

On to A5U U41A U60A U78A, for which the self-cleavage was determined as 0.14.

Turning to A5U G6A U48A A64G A65G, the self-cleavage is 0.31.

As to A5U G22U U76C A77G, the self-cleavage was determined as 0.28.

Consider A5U U26A U43A, for which the self-cleavage is 0.25.

On to A5U U31C U67A, for which the self-cleavage was determined as 0.35.

With A5U A47G A57G, the self-cleavage came out at 0.67.

For A5U U51A U72A, the self-cleavage came to 0.92.

For A5U G9A C11U G33U U78C, the self-cleavage worked out at 0.13.

With A5U C11G U31C A75U, the self-cleavage was found to be 0.7.

Take A5U A21U U43A A65G U66C: the self-cleavage amounted to 0.13.

With A5U U26C U49C A64G U67A U72C, the self-cleavage worked out at 0.1.

For A5U U31C U78C, the self-cleavage is 0.99.

A5U G36A U69C: the self-cleavage is 0.05.

Take A5U G7C A20G U26C A28U U31C U80A: the self-cleavage was 0.04.

For A5U U41A U43C A47U U49C U76C, the self-cleavage was determined as 0.09.

For A5U A21G A56G, the self-cleavage came out at 0.47.

With A5U A21G U41A U66C, the self-cleavage came to 0.06.

For A5U C12U U25C U51A U66C U69A, the self-cleavage is 0.15.

Take A5U A28U G63U: the self-cleavage came to 1.11.

As for A5U A28G U67A U74C, the self-cleavage was 0.4.

On to A5U A45G A56G U78A U80C, for which the self-cleavage was determined as 0.55.

For A5U C12U U49C U60C, the self-cleavage was determined as 0.1.

For the variant A5U A35U A45C A65G U67A A77U, the self-cleavage was determined as 0.15.

For A5U A21U C37A A57G U67A, the self-cleavage came out at 0.22.

Regarding A5U U43G U54C, the self-cleavage was 0.41.

In the case of A5U C17U A47G A56U U60C U72G, the self-cleavage is 0.13.

As to A5U C37G U69C, the self-cleavage turned out to be 0.34.

For the variant A5U U41C A57G U78C, the self-cleavage is 0.7.

In the case of A5U C17U A64U, the self-cleavage was 0.22.

As for A5U C39A G61C C71A U76C, the self-cleavage turned out to be 0.08.

Consider A5U U25C U41G A56G, for which the self-cleavage turned out to be 0.2.

For the variant A5U C40G A56C U60A, the self-cleavage came to 0.5.

With A5U U26C U78C, the self-cleavage came out at 0.54.

For the variant A5U G8A A56G U60C A75C, the self-cleavage is 0.21.

With A5U C11U C39U, the self-cleavage is 0.57.

On to A5U A28U U41C, for which the self-cleavage came to 0.9.

A5U A28G U49C U51A: the self-cleavage worked out at 0.42.

For A5U C23G U26A C44A A64G, the self-cleavage amounted to 0.13.

As to A5U G8U A18G A20U U43G A45U, the self-cleavage came to 0.11.

On to A5U G7C A18G A20G U26C A28U U48C, for which the self-cleavage came out at 0.3.

As to A5U U25C U26A G55U, the self-cleavage amounted to 0.5.

As to A5U U26A G52A, the self-cleavage came to 1.03.

Regarding A5U A28U A75G, the self-cleavage came to 0.76.

Turning to A5U U26A A47U A75G, the self-cleavage stood at 0.17.

On to A5U U31A U41C A77U, for which the self-cleavage turned out to be 0.52.

Consider A5U U51C A56G U58C A75G U80C, for which the self-cleavage was determined as 0.2.

For A5U G9A U76C, the self-cleavage was found to be 0.26.

As to A5U C12U U72A U78C, the self-cleavage worked out at 1.26.

For A5U G9A A28C G46A U58A U60C, the self-cleavage came to 0.07.

In the case of A5U C17U U31A U43C, the self-cleavage came out at 0.25.
